In a collection of fitness landscapes (doi:10.1126/science.1257360) one finds enrichment ratio data, which are given here for 195 variants.

This is one part of the list.

Sequences and labels used below:
B1: PhoQ; a variant is named by its letters at X, in order, P23837 (parent)
chain: MKKLLRLFFPLSLRVRFLLATAAVVLVLSLAYGMVALIGYSVSFDKTTFRLLRGESNLFYTLAKWENNKLHVELPENIDKQSPTMTLIYDENGQLLWAQRDVPWLMKMIQPDWLKSNGFHEIEADVNDTSLLLSGDHSIQQQLQEVREDDDDAEMTHSVAVNVYPATSRMPKLTIVVVDTIPVELKSSYMVWSWFIYVLSANLLLVIPLLWVAAWWSLRPIEALAKEVRELEEHNRELLNPATTRELTSLVRNLNRLLKSERERYDKYRTTLTDLTHSLKTPLXXLQXXLRSLRSEKMSVSDAEPVMLEQISRISQQIGYYLHRASMRGGTLLSRELHPVAPLLDNLTSALNKVYQRKGVNISLDISPEISFVGEQNDFVEVMGNVLDNACKYCLEFVEISARQTDEHLYIVVEDDGPGIPLSKREVIFDRGQRVDTLRPGQGVGLAVAREITEQYEGKIVAGESMLGGARMEVIFGRQHSAPKDE

This experiment covers variants of B1. Briefly: enrichment ratio after two sorts for PhoP signalling (ratio (wild type AVST 3.29)); higher = more functional. As to conditions: with PhoP (E. coli).
Regarding NLCQ, the enrichment ratio was no more than 0.25.
VTIL: the enrichment ratio was no more than 0.25.
Consider FKVN, for which the enrichment ratio was no more than 0.25.
In the case of RYNE, the enrichment ratio is no more than 0.25.
Turning to HEHF, the enrichment ratio was no more than 0.25.
GFGN: the enrichment ratio was no more than 0.25.
Regarding DADK, the enrichment ratio was no more than 0.25.
Take NKYH: the enrichment ratio is no more than 0.25.
As for GLDQ, the enrichment ratio is no more than 0.25.
Consider DSVD, for which the enrichment ratio was no more than 0.25.
MYGK: the enrichment ratio is no more than 0.25.
For the variant RGPT, the enrichment ratio is no more than 0.25.
On to IVAP, for which the enrichment ratio was no more than 0.25.
Turning to LRKS, the enrichment ratio is no more than 0.25.
Under FCDP stands no more than 0.25; under SKGD, no more than 0.25; under VLLD, no more than 0.25.
As to MILS, the enrichment ratio turned out to be 7.3.
As to NNSI, the enrichment ratio was no more than 0.25.
Under DVHP stands no more than 0.25.
SQYP: the enrichment ratio was no more than 0.25.
For the variant PRGP, the enrichment ratio is no more than 0.25.
NICC: the enrichment ratio is no more than 0.25.
Regarding EIML, the enrichment ratio was no more than 0.25.
On to TRPL, for which the enrichment ratio was no more than 0.25.
As for TGII, the enrichment ratio was no more than 0.25.
Regarding FHTF, the enrichment ratio is no more than 0.25.
For the variant NFLQ, the enrichment ratio was no more than 0.25.
For the variant WGVY, the enrichment ratio was no more than 0.25.
Under RASE stands no more than 0.25; under GGWG, no more than 0.25; under QCNM, no more than 0.25.
For the variant TVQS, the enrichment ratio was 7.79.
Consider WNDP, for which the enrichment ratio was no more than 0.25.
Take IENN: the enrichment ratio is no more than 0.25.
Regarding YICP, the enrichment ratio is no more than 0.25.
Under AFRT stands no more than 0.25; under VTKY, no more than 0.25.
Under ECMF stands no more than 0.25.
In the case of FSGR, the enrichment ratio was no more than 0.25.
With WINP, the enrichment ratio was no more than 0.25.
Under KYKH stands no more than 0.25; under YVVN, no more than 0.25.
VADM: the enrichment ratio was no more than 0.25.
On to PLQW, for which the enrichment ratio is no more than 0.25.
With NFWQ, the enrichment ratio was no more than 0.25.
Take MEQK: the enrichment ratio is no more than 0.25.
Under ADKL stands no more than 0.25.
Under YQVS stands no more than 0.25.
KDNG: the enrichment ratio is no more than 0.25.
Consider DKGM, for which the enrichment ratio was no more than 0.25.
On to EYMR, for which the enrichment ratio was no more than 0.25.
Regarding EIVW, the enrichment ratio was no more than 0.25.
As for HGTY, the enrichment ratio was no more than 0.25.
For NGWH, the enrichment ratio is no more than 0.25.
For ITLV, the enrichment ratio came out at 7.88.
Turning to LGHY, the enrichment ratio was no more than 0.25.
As for TDIT, the enrichment ratio was no more than 0.25.
The result for MYQW reads no more than 0.25.
On to QLCI, for which the enrichment ratio is no more than 0.25.
Consider QLKW, for which the enrichment ratio was no more than 0.25.
Take WSKD: the enrichment ratio is no more than 0.25.
Regarding MCDC, the enrichment ratio is no more than 0.25.
Consider DPMR, for which the enrichment ratio was no more than 0.25.
For QRKV, the enrichment ratio was no more than 0.25.
For the variant FWQV, the enrichment ratio is no more than 0.25.
On to YYAN, for which the enrichment ratio was no more than 0.25.
Under QKIY stands no more than 0.25.
Turning to NMLY, the enrichment ratio was no more than 0.25.
Consider SWEQ, for which the enrichment ratio is no more than 0.25.
On to HIDY, for which the enrichment ratio is no more than 0.25.
Consider QGVS, for which the enrichment ratio is no more than 0.25.
ARFK: the enrichment ratio was no more than 0.25.
The result for DWFG reads no more than 0.25.
Under GLCN stands 12.8; under WQPM, no more than 0.25; under LEVR, no more than 0.25.
As to KGTT, the enrichment ratio is no more than 0.25.
The result for IHQA reads no more than 0.25; that for PTAG, no more than 0.25; that for RNKM, no more than 0.25.
With DMVK, the enrichment ratio is no more than 0.25.
For DGSE, the enrichment ratio is no more than 0.25.
With KFDA, the enrichment ratio was no more than 0.25.
For FARF, the enrichment ratio came out at 0.405.
Turning to VDIP, the enrichment ratio is no more than 0.25.
In the case of IRKA, the enrichment ratio is no more than 0.25.
SLFY: the enrichment ratio was no more than 0.25.
With MRMV, the enrichment ratio was no more than 0.25.
In the case of ISIW, the enrichment ratio is no more than 0.25.
AIAV: the enrichment ratio came to 9.01.
Turning to SQMC, the enrichment ratio is 10.5.
In the case of PSNK, the enrichment ratio was no more than 0.25.
As to NTFG, the enrichment ratio was no more than 0.25.
The result for ADCL reads no more than 0.25; that for WWSD, no more than 0.25; that for SFWD, no more than 0.25.
Under KNTL stands no more than 0.25; under TFFK, no more than 0.25.
In the case of HTWF, the enrichment ratio was no more than 0.25.
For EQIY, the enrichment ratio is no more than 0.25.
Under NSMG stands no more than 0.25; under EGCF, no more than 0.25; under GNHP, no more than 0.25.
Regarding TEVF, the enrichment ratio was 2.32.
Turning to ALAE, the enrichment ratio was no more than 0.25.
Consider QIIM, for which the enrichment ratio was no more than 0.25.
Consider HMFC, for which the enrichment ratio was no more than 0.25.
Under VIRD stands no more than 0.25; under QTPY, no more than 0.25; under QHHV, no more than 0.25.
In the case of CCAF, the enrichment ratio is 6.47.
With QEIL, the enrichment ratio is no more than 0.25.
Under HRWA stands no more than 0.25; under RVQG, no more than 0.25.
Regarding LPFG, the enrichment ratio was no more than 0.25.
With ETII, the enrichment ratio was no more than 0.25.
Turning to QVRG, the enrichment ratio was no more than 0.25.
With EFSL, the enrichment ratio was no more than 0.25.
For the variant YPPC, the enrichment ratio is no more than 0.25.
In the case of YNHT, the enrichment ratio is no more than 0.25.
With SGQH, the enrichment ratio was 11.9.
The result for HTMY reads no more than 0.25; that for MSLC, 11.7; that for NHET, no more than 0.25.
On to WIWE, for which the enrichment ratio was no more than 0.25.
In the case of IHPL, the enrichment ratio is no more than 0.25.
In the case of VTCM, the enrichment ratio worked out at 2.29.
Take AKVF: the enrichment ratio turned out to be 1.45.
As to GPGT, the enrichment ratio was no more than 0.25.
Take SIDY: the enrichment ratio is no more than 0.25.
With YRTC, the enrichment ratio was no more than 0.25.
Under KVWY stands no more than 0.25.
Take LWEC: the enrichment ratio was no more than 0.25.
The result for LKQS reads no more than 0.25.
Under QPEL stands no more than 0.25; under LLSR, no more than 0.25.
In the case of HICG, the enrichment ratio is no more than 0.25.
For NILD, the enrichment ratio was no more than 0.25.
For the variant RCHH, the enrichment ratio was no more than 0.25.
The result for QDAV reads no more than 0.25; that for YMGS, no more than 0.25; that for HRHV, no more than 0.25.
With ENLQ, the enrichment ratio is no more than 0.25.
Regarding PKRF, the enrichment ratio was no more than 0.25.
In the case of AYNA, the enrichment ratio was no more than 0.25.
Consider ADST, for which the enrichment ratio is no more than 0.25.
As to FEYG, the enrichment ratio was no more than 0.25.
Regarding RDYQ, the enrichment ratio is no more than 0.25.
Take LVDW: the enrichment ratio is no more than 0.25.
With KFGY, the enrichment ratio is no more than 0.25.
Regarding LSGW, the enrichment ratio is no more than 0.25.
In the case of YQAS, the enrichment ratio was no more than 0.25.
As to FQAL, the enrichment ratio is no more than 0.25.
The result for HWDI reads no more than 0.25.
Under TCGV stands 6.19; under ILGC, no more than 0.25.
With GRET, the enrichment ratio is no more than 0.25.
For the variant IRTR, the enrichment ratio is no more than 0.25.
Take TRQG: the enrichment ratio was no more than 0.25.
Turning to SWIP, the enrichment ratio is no more than 0.25.
Consider FDWY, for which the enrichment ratio is no more than 0.25.
As to NPYG, the enrichment ratio is no more than 0.25.
For QPGD, the enrichment ratio was no more than 0.25.
The result for HRQV reads no more than 0.25; that for LNMK, no more than 0.25.
The result for GYPS reads no more than 0.25; that for YFLK, no more than 0.25; that for DQYE, no more than 0.25.
Regarding TDYT, the enrichment ratio was no more than 0.25.
The result for PYQK reads no more than 0.25.
In the case of EGVL, the enrichment ratio was no more than 0.25.
Turning to GTAI, the enrichment ratio was no more than 0.25.
Turning to PPMR, the enrichment ratio is no more than 0.25.
Turning to RYME, the enrichment ratio is no more than 0.25.
The result for IQKQ reads no more than 0.25.
With YRDG, the enrichment ratio was no more than 0.25.
With DSIY, the enrichment ratio was no more than 0.25.
As to EAML, the enrichment ratio was no more than 0.25.
Take TLCK: the enrichment ratio is no more than 0.25.
As for PFCG, the enrichment ratio was no more than 0.25.
On to KMPH, for which the enrichment ratio is no more than 0.25.
The result for WNYY reads no more than 0.25.
As to NRRP, the enrichment ratio was no more than 0.25.
The result for WGFW reads no more than 0.25; that for MWIF, no more than 0.25.
FIYV: the enrichment ratio is no more than 0.25.
In the case of IDFY, the enrichment ratio is no more than 0.25.
For the variant KHPM, the enrichment ratio is no more than 0.25.
Take MHHR: the enrichment ratio was no more than 0.25.
As for AQMR, the enrichment ratio is no more than 0.25.
In the case of QDMT, the enrichment ratio was no more than 0.25.
For DHQC, the enrichment ratio is no more than 0.25.
Consider ISTM, for which the enrichment ratio was no more than 0.25.
The result for SVNA reads no more than 0.25.
